Values marked as one replicate rest on one cluster of the flow cell; about a third of the high ones do not repeat.

Data on 120 sequences can be found in the supplement of paper PMC10126150.

The test system of the data set is ATP. Kind of data set: switch fluorescence ratio, 500 uM ATP over buffer (Cy3 cluster intensity, sum of 5 cycles each) (fold (ratio)); higher = stronger signal-on switching upon ATP binding; sequences stand for … in TCGTCGGCAGCGTCAGATGTGTATAAGAGACAGTTTTTTTTTTTTTTTTTTTTTTTTT…TC. The note with it: aptamer strand: ATP DNA aptamer (quencher-CACCTGGGGGAGTATTGCGGAGGAAGG + anchor), 100 nM annealed; ATP concentration: 500 uM; one replicate. In short, it runs like this:
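Imaging in selection buffer was followed by imaging after 15 min with 500 uM ATP at 22 °C, for Cy3-labelled switching-strand clusters annealed to 100 nM quencher-labelled ATP aptamer on a modified Illumina MiSeq flow-cell. Five of these buffer/ATP cycles ran, separated by NaOH stripping and re-annealing. The fluorescence ratio per cluster is summed target-cycle over summed buffer-cycle Cy3 intensity, averaged per switch-domain sequence; clusters outside 100-1000 RFU were removed.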
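Also: ATP exposure 15 min at 22 °C before imaging.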

Consider ACATGGGCGG, for which the switch fluorescence ratio came out at 1.01.

On to TAGAGTATGA, for which the switch fluorescence ratio was found to be 1. The result for GGCGCGTCTT reads 1.02. Next, TACAGAGTTC: 1.05; AGGATCTAAA: 0.97. The result for TTCCGAACGA reads 3.67.

Turning to ACATATTTAG, the switch fluorescence ratio came to 1.02. The result for TGTAGCTCTT reads 0.956. Next, TCTGTATATC: 1.03. The result for GGCCTTTGTA reads 0.993; that for AGCCGGGTA, 1.01; that for CGGAACGAGG, 1.02. With CCGGGTGCAG, the switch fluorescence ratio came to 1.11. Next, GGGACAAGTT: 1.03; GAGGTCAGGA: 1.02; AAGTATTACG: 0.944. Next, CCCGAGGGTG: 1.38; TGCCGTCGCT: 0.976. With GAGCCTATCT, the switch fluorescence ratio was 0.989.

For the sequence GCAATGTCGC, the switch fluorescence ratio was 1.07. The result for CGGTGCCTAA reads 0.978; that for GAGCATGCGT, 0.989. With CTCTGTTATA, the switch fluorescence ratio came out at 1.25.

Regarding CGGCTGGACC, the switch fluorescence ratio came out at 1.03. The result for CTGATACGA reads 1.01; that for GGTCCCTTTG, 0.996; that for AATAGACAGT, 1.01. Next, CTACTAGCGA: 1.41; TACCATGTTG: 1.04.

Regarding TCATATATAG, the switch fluorescence ratio was found to be 0.985. AGGTTCTGGA: the switch fluorescence ratio was found to be 1.02. The result for ACATAAGTGA reads 1.02. The result for AGTAGCAAGG reads 1.18. Take ATTCCTACCC: the switch fluorescence ratio was 1.16. With CGGCTGAATG, the switch fluorescence ratio was found to be 1.01. Next, TCGTCTTAAA: 1.01. Turning to CGGGCCTAAC, the switch fluorescence ratio came to 1.66. As to CGTCATATAT, the switch fluorescence ratio came out at 1.13.

For the sequence TAGTCGTGG, the switch fluorescence ratio came out at 0.989.

With TGGTGTGGT, the switch fluorescence ratio is 1.07. On to CTTACTTGGC, for which the switch fluorescence ratio came to 1.1. As to GAGATGGT, the switch fluorescence ratio worked out at 0.98.

As to ATAGTCAGTT, the switch fluorescence ratio amounted to 0.988. Next, CGGCAAAGAC: 1.81; AATGCGTTAC: 1.35; GCCCTTGCCC: 1.02. The result for AAGATAGGGT reads 1; that for TCGACACGTA, 1.09; that for TATGCCGATA, 0.988.

On to CTGCTCGGCT, for which the switch fluorescence ratio was determined as 0.949. Next, GTAATAGTGA: 1.03; GTGGGGCGCT: 0.971; AGCACCGTCC: 1.59. Next, CTTTAAACCT: 2.86. For the sequence GCAAGGGAGG, the switch fluorescence ratio is 0.995.

In the case of CATAGTCCGG, the switch fluorescence ratio was 0.956. The result for TATCCGTTTC reads 1.05. CCTCGGACG: the switch fluorescence ratio was determined as 1.17. The result for TAGGATCCCG reads 1.02; that for CGAATTCACT, 1.01; that for GCTTTAGGC, 0.977. The result for GTGCTATAAA reads 1.02; that for CGTAAGCTAA, 1.15; that for AGCCTTATGG, 1.03.

In the case of ACGATTCCGC, the switch fluorescence ratio amounted to 1.62.

With TTGCAACATG, the switch fluorescence ratio was found to be 0.994. The result for TCGTTCCACA reads 1.03. AAGCGCCTTG: the switch fluorescence ratio came out at 0.972.

For the sequence TCGCTAGGTG, the switch fluorescence ratio worked out at 1. The result for CAGATGAACC reads 0.997. The result for CTTGATACCG reads 0.975. As to TTGGACAGCA, the switch fluorescence ratio amounted to 1.03.

Regarding TTAAAGGGAG, the switch fluorescence ratio was determined as 0.976. Regarding CCTTAATTT, the switch fluorescence ratio was found to be 1.02. On to TACCTGATGT, for which the switch fluorescence ratio is 1.04. AGCGGTATTG: the switch fluorescence ratio was 0.964.

For the sequence ATGAGCGTAC, the switch fluorescence ratio came to 1.45.

For TGAGATTACG, the switch fluorescence ratio came out at 0.935. On to GGATGAGCCC, for which the switch fluorescence ratio amounted to 1.02. On to ACCTCGGTGT, for which the switch fluorescence ratio is 1.07. On to AATGGAAACC, for which the switch fluorescence ratio came out at 1.06.

On to ACCTTATGTC, for which the switch fluorescence ratio amounted to 1.01. The result for GTCGGTGTAG reads 1.02; that for CTTATGAGTC, 1.02. Turning to ATAAACTTGC, the switch fluorescence ratio was found to be 1.13. Next, ACGCACGGAT: 1.41; AACTCTAGGG: 0.989; CTACACGGTT: 1.

On to AAGCCGTTGA, for which the switch fluorescence ratio was found to be 0.989. Next, GCCGACAAAA: 1.4; AAGATGAAGT: 0.994. For TTCAAATATG, the switch fluorescence ratio worked out at 1.01. Next, TTCCTACACA: 1.49. Turning to CATAGGTGGG, the switch fluorescence ratio is 0.949. Next, ATGACATCCT: 1.04; GAAGTCATGC: 1.27. On to CGTGAAAAGG, for which the switch fluorescence ratio worked out at 1.02. As to GCAAATGTCT, the switch fluorescence ratio was found to be 1.01. The result for TATCCCCTTG reads 1.03. Consider GGATATATTA, for which the switch fluorescence ratio is 0.974. The result for AAACCGGTGA reads 1.05; that for CATATAAAGC, 1.05; that for GCACCGATAA, 1.22. Next, ATTAAGTTAG: 1.02; TTTGTCCC: 1.02.

Take CAAAAGTTCG: the switch fluorescence ratio is 1.04. The result for ATATGCGTGG reads 0.989; that for AGCGTACGG, 1.02. Consider TAGTTAGAG, for which the switch fluorescence ratio was 1.01.

As for ATAGAAACT, the switch fluorescence ratio amounted to 1.21. For TTTTAACGTC, the switch fluorescence ratio turned out to be 1.02. Take ACGGCTTTGG: the switch fluorescence ratio turned out to be 1.03.

Regarding CGGCGCTGAG, the switch fluorescence ratio came to 1. Turning to TGTGGAGG, the switch fluorescence ratio came out at 1.02. Take GAGCTCTATC: the switch fluorescence ratio is 0.974. On to TTCTGCGATA, for which the switch fluorescence ratio stood at 1.89. The result for CCCCGGGAAT reads 1.07; that for TGTAGTAGT, 0.996; that for GCTTAATGC, 1.04. Consider GCGGGCTCAG, for which the switch fluorescence ratio was 1.02.
